# Results taken from PubChem BioAssay AID686978 (National Center for Advancing Translational Sciences (NCATS), 2013).
# Among all 420,000 compounds or so, about 64,000 (15%) were called active. Inconclusive results, whose numbers are uncertain, are shown with a selection of clear calls. The call rests on the fitted dose curve; in most records, active means well fitted inhibition curve with a large enough effect; inconclusive means small, poorly fitted or top-dose-only effect; inactive means flat fitted curve, though single readings scatter. Potencies of inconclusive entries are left out as doubtful fits.
# Experiment: qHTS for Inhibitors of human tyrosyl-DNA phosphodiesterase 1 (TDP1): qHTS in cells in absence of CPT; further: nearly all actives have a fitted effect of over 55% in size
# Conditions: DT40 Tdp1-/- hTDP1 cells, no CPT, ATP luminescence, 48 h; activity change, negative = growth inhibition: at 46.2 µM (top of the series) unless noted
# Method in brief: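 Luminescent ATP content (CellTiter-Glo) served as the growth readout. Knockout chicken DT40 cells expressing human TDP1 were exposed to compounds without camptothecin for a minimum 48 hr at 37 °C.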
# On the % scale 0 is the no-effect control and ±100 the full control effect; potency means the concentration at half of the fitted maximal effect; tags describe the fitted curve by direction and shape.
Structure (SMILES),Potency,"activity change, negative = growth inhibition"
O=C(NCCCN1CCN(c2ccccc2)CC1)c1ccc2nc(CCc3ccccc3)oc2c1,active: 4.61 µM,
CCCCn1c(=O)n(CC(O)c2ccccc2)c(=O)c2c1ncn2C1CCCC1 (centres undefined),"inconclusive [inhibitor, single point]",
O=S1(=O)CC(N2CCN(CCO)CC2)CN1Cc1cn(Cc2cccc(Cl)c2)nn1 (centres undefined),,inactive: 6.99%
COc1ccc2[nH]cc(CCNc3ncncc3-c3cccc(C#N)c3)c2c1,"inconclusive [inhibitor, single point]",
O=C(Nc1ccc(Oc2cccnc2)cc1)c1ccccc1Cl,"inconclusive [inhibitor, single point]",
O=C(NCCc1ccccc1)c1ccc2nc(N3CCOCC3)sc2c1,"inconclusive [inhibitor, single point]",
COCCn1c(SCC(=O)Nc2cc(C)on2)nc2c(c1=O)SC(C)C2 (centres undefined),"inconclusive [inhibitor, single point]",
CCOc1ccc(OCC)c(NC(=O)C2CCCN2S(=O)(=O)c2cccc3cccnc23)c1 (centres undefined),active: 18.4 µM,
CCS(=O)(=O)c1ncc(Cl)c(C(=O)Nc2ccccc2OC)n1,active: 1.03 µM,
CCO[C@@H]1OC(C(=O)N2CCN(C)CC2)=C[C@H](C(C)(C)C)[C@H]1CCCO,"inconclusive [inhibitor, single point]",
COc1ccc(C(CNC(=O)COc2cc(C)ccc2Cl)N2CCCCC2)cc1 (centres undefined),"inconclusive [inhibitor, single point]",
COC(=O)C(Oc1ccc2c(-c3ccc(OC)cc3)cc(=O)oc2c1)c1ccccc1 (centres undefined),"inconclusive [inhibitor, partial curve]",
Cn1c(=O)oc2cc(S(=O)(=O)N3CCCC(C(=O)N4CCN(c5ccc(F)cc5)CC4)C3)ccc21 (centres undefined),active: 4.11 µM,
COc1ccc(NC(=O)C2CCCN(c3c4c(nc5ncnn35)CCC4)C2)cc1OC (centres undefined),"inconclusive [inhibitor, single point]",
Cn1c(=O)n(C)c2cc(NC(=O)c3ccccc3)ccc21,"inconclusive [inhibitor, single point]",
CC(=O)Nc1cccc(/C(C)=N/NC(=O)c2ccc(CN3CCOCC3)cc2)c1,,inactive: -7.85%
CSc1cccc(NC(=O)C2CCCN(S(=O)(=O)c3ccc4c(c3)CCCN4C(C)=O)C2)c1 (centres undefined),active: 20.6 µM,
CCCCC1CC(/C(C)=N/NC(N)=O)OC1=O (centres undefined),,inactive: -16.6%
Cc1ccc(S(=O)(=O)c2c(C)nn(C(C)(C)C)c2OC(=O)C2CCCC2)cc1,"inconclusive [inhibitor, single point]",
